Whole data set: some 110,000 compounds, median “z-score” near -0.1, cut for the highest 2% near 2. Some of the results follow. Activity calls are given as the source filed them.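 Rule for the calls: active = z-score in the third read window above 3 or below -3; inactive = the rest.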
The molecules below were run against Metabotropic glutamate receptor 8 (Rattus norvegicus) (UniProt P70579) (assay: mGluR8 Gi/Go-coupled signaling modulation – cell-based, rat, thallium flux, HTS, primary screen (AID 488969)). Settings: HEK293 rat mGluR8, GIRK (G protein-gated inwardly rectifying potassium channel) thallium flux, FluoZin2; at 10 µM; stronger effect = higher value; submaximal glutamate (EC20) added with thallium.
UniProt P70579, sequence (P70579 whole entry, looked up): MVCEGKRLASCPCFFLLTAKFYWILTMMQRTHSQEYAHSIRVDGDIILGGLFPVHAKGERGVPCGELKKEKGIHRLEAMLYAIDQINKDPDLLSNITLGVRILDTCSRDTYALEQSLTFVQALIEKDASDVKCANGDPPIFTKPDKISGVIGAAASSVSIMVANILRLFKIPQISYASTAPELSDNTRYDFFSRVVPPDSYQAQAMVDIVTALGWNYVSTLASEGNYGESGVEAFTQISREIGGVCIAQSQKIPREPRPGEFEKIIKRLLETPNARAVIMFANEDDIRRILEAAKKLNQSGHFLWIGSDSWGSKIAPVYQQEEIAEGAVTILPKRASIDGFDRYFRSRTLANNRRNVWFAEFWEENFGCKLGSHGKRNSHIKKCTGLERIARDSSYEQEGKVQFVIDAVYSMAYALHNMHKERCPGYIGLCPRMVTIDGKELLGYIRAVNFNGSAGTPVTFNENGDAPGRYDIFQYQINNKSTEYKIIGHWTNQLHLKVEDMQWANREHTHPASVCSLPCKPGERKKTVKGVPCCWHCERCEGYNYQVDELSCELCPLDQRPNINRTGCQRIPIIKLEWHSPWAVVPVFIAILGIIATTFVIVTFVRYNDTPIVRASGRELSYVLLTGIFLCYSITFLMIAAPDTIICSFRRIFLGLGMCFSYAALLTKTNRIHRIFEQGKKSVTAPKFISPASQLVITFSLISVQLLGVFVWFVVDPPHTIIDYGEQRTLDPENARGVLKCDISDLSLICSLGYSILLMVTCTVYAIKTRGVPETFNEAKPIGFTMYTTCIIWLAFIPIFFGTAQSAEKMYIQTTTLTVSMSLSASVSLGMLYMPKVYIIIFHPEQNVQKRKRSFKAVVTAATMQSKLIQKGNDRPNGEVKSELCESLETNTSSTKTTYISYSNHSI

In order of falling z-score:
1. Cc1nn(C)cc1CNC(=O)Nc1ccc(Cl)c(Cl)c1  2.06
2. NC(=O)NC(c1ccccc1)c1ccccc1  1.66
3. CCOC(=O)/C(=N/Nc1ccc(C)cc1)S(=O)(=O)c1ccc(Cl)cc1  1.32
4. O=C(Cn1cnc2c(oc3ccccc32)c1=O)N1CCN(c2ccccc2)CC1  1.2
5. Cc1ccc(OCCCN(C)C)c(Br)c1  1.17
6. COc1ccc(-c2cc3nc4c(c(=O)n3[nH]2)CCC4)cc1  1.13
7. CN(C)C(CNC(=O)Nc1cccc(Cl)c1)c1cccnc1 (stereo not given)  0.988
8. COc1cc(/C=N\Nc2nc3ccccc3o2)cc(OC)c1OC  0.867
9. O=C(COC(=O)c1ccco1)NCc1cccs1  0.528
10. CCOC(=O)N1CCN(S(=O)(=O)c2ccc(C)c(C)c2)CC1  0.519
11. Cc1csc2nc(CCNS(=O)(=O)c3cccs3)cn12  0.325
12. CCCCN(C)CCCNC(=O)CCn1nc(-c2ccccc2)ccc1=O  0.0635
13. COc1ccc(-n2c(N)c(C(=O)NCC3CCCO3)sc2=S)cc1 (stereo not given)  0.0625
14. NC(=S)Nc1cc2ccccc2c2ccccc12  0.0523
15. COC(=O)c1ccccc1NC(=O)CN1CCOCC1  0.0182
16. CC12CC(NC(=O)N1Cc1ccccc1)c1ccccc1O2 (stereo not given)  0.0105
17. CCCn1nnc(NC(=O)c2ccc(OC)cc2)n1  -0.0151
18. COc1cccc(N(CC(=O)O)S(=O)(=O)c2ccccc2)c1  -0.0181
19. Cc1cccc(OCC(=O)NC(Cc2ccccc2)C(=O)O)c1 (stereo not given)  -0.031
20. Clc1ccccc1CSc1snnc1-c1ccccc1  -0.0536
21. Oc1cccc(/C=N/Nc2cc(N3CCCC3)nc(N3CCCC3)n2)c1  -0.0652
22. CCCC(C1=C(O)CC(C)(C)CC1=O)C1C(=O)CC(C)(C)CC1=O (stereo not given)  -0.0698
23. O=C1C2C3C=CC(C3)C2C(=O)N1CCCCN1C(=O)C2C3C=CC(C3)C2C1=O (stereo not given)  -0.0856
24. CO/N=C/c1ccc(N2CCN(C(=O)c3cccc(C(F)(F)F)c3)CC2)c([N+](=O)[O-])c1  -0.0941
25. Cc1ccc(S(=O)(=O)N2CCN(C(=O)CCC(=O)OCC(=O)Nc3cccc(C#N)c3)CC2)cc1  -0.106
26. CNc1c([N+](=O)[O-])cnn1-c1ccc(Cl)cc1  -0.122
27. CN(C)C(=O)N1CCN(C(=O)N2CCOCC2)CC1  -0.134
28. Cc1c(/C=C/C(=O)c2ccccc2)cnn1C  -0.156
29. CCOc1ccc(N(Cc2cc3ccc(C)cc3[nH]c2=O)S(C)(=O)=O)cc1  -0.166
30. CCCCOc1cccc(-c2nnc(NC(=O)CSc3ccc(C)cc3)s2)c1  -0.169
31. Cc1nc([N+](=O)[O-])c(Br)n1CC(=O)c1ccc(Br)cc1  -0.183
32. COc1ccccc1N1C(=O)C2C3CC(c4ccccc4)C(C3)C2C1=O (stereo not given)  -0.186
33. O=C(COc1ccc(Br)cc1)c1ccc2c(c1)CCCC2  -0.191
34. O=c1cc(C(F)(F)F)oc2c1ccc1ccccc12  -0.211
35. CCCCCCn1c(COc2ccccc2F)nnc1SCC(=O)c1c(N)n(C)c(=O)n(C)c1=O  -0.228
36. C/C(=N\NC(=O)c1cc(-c2cccnc2)nc2ccccc12)c1ccc(O)cc1O  -0.235
37. CCOC(=O)c1[nH]c2ccccc2c1N=CN(C)C  -0.24
38. Cc1cc(C)cc(OCC(=O)N2CCCCCC2)c1  -0.242
39. Cn1c(CNC(=O)c2ccco2)nnc1SCC(=O)Nc1cccc(Br)c1  -0.244
40. COc1ccc(/C=C\C(=O)c2c(O)ccc3c(C)cc(=O)oc23)cc1  -0.279
41. Cc1ccc(CNC(=O)/C=C/c2ccc(Br)o2)cc1  -0.294
42. COc1ccccc1NC(=O)c1ccc(CN(c2cc(Cl)ccc2C)S(=O)(=O)c2ccccc2)cc1  -0.303
43. COCCNC(=O)c1c[nH]c2ccc(S(=O)(=O)N3CCC4(CC3)OCCO4)cc2c1=O  -0.33
44. COC(=O)Oc1ccc(/C=N/NC(=O)CSCc2ccc(Cl)cc2)cc1OC  -0.334
45. CCC(=O)Nc1ccc(S(=O)(=O)NCC2CCCO2)cc1 (stereo not given)  -0.339
46. CCN1CCN(C(=S)c2ccc(OCC(=O)N3CCOCC3)cc2)CC1  -0.363
47. CCOC(=O)C1=C(CSc2nc(CC)c(C)cc2C#N)OC(N)=C(C#N)C1c1ccccc1 (stereo not given)  -0.373
48. O=C(CC(NC(=O)c1ccccc1Cl)c1ccccc1)NCCc1ccc(Cl)cc1 (stereo not given)  -0.556
49. O=C(O)CCS(=O)(=O)Cc1ccccc1F  -0.777
50. COc1cc(C(=O)NCCCNc2nc3cc(C)cc(C)c3cc2C#N)cc(OC)c1OC  -0.863
51. COC(=O)c1cc(NC(=O)Cc2ccc(OC)c(OC)c2)cc(C(=O)OC)c1  -1.07
52. COc1ccc(CN(C(=O)c2cc3ccccc3oc2=O)C2CCCCC2)cc1OC  -1.2
53. COC(=O)CSc1snnc1-c1ccc(F)cc1  -1.33
54. c1ccc(CCn2nnnc2CN2CCc3ccccc32)cc1  -1.51

In the case of `CCOc1ccc2nc(/N=C/c3c(C)[nH]n(-c4ccccc4)c3=O)sc2c1`, the z-score was active: 13.8.

Source: PubChem BioAssay AID488969 (Vanderbilt High Throughput Screening Facility, 2010)
